From paper PMC7819943, “Rice protein-binding microarrays: a tool to detect cis-acting elements near promoter regions in rice”
This is one part of the list.

molecular target: T1, OsWOX13 (Oryza sativa, UniProt Q5QMM3 1-267); assay: protein-binding microarray (RPBM); PBS, 2% BSA, 51.3 ng/ul salmon testes DNA, 50 uM zinc acetate, 200 nM TF, 25 C, 1 h; high values mean tight binding; details: protein: recombinant; tags: N-terminal polyhistidine and DsRed monomer fusion (pET32a); label: CyDye5-dUTP incorporated in the synthesized complementary strand; 3' TTTTT single-stranded linker to array surface; dsDNA, one strand shown
T1 sequence: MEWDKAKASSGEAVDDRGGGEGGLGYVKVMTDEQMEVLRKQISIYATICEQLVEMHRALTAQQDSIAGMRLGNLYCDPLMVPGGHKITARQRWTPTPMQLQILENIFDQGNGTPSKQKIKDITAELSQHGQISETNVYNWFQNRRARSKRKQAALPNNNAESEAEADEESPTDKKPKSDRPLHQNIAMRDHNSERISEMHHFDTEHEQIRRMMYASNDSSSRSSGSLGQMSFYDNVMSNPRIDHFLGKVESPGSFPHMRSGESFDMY
In short: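 The binding signal is fluorescence intensity per array feature (arbitrary units). Readings came from an Axon 4000B scanner after a washed, 2% BSA-blocked, double-stranded custom Agilent array had been incubated for 1 h at 25 °C with 200 nM protein and 50 µM zinc acetate. The protein was a Ni–NTA-purified transcription factor fused N-terminally to polyhistidine and DsRed, expressed in E. coli BL21-CodonPlus.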

In order of rising binding signal:
1. GTCATTGTCCAAAGCGTCAATTAAAATGAAACTGGAGGTACGGAGTCACCTAGTGCAG  3150 fluorescence intensity (a.u.)
2. TGGACATTGACAAAATCACAGATCCAGTAAGTACTAGTATCGGAGTCACCTAGTGCAG  3170 fluorescence intensity (a.u.)
3. TGGTTGATAGCTACGTCACAAACGTCACACTGATCAAAGTCGGAGTCACCTAGTGCAG  3220 fluorescence intensity (a.u.)
4. CATGTCATCAAATTTGTTTGAATGGCATCTCATTTATTGACGGAGTCACCTAGTGCAG  3240 fluorescence intensity (a.u.)
5. CAAAATATACTAATTTCTTCAAGCAAAGGTCCAGCCCATCCGGAGTCACCTAGTGCAG  3240 fluorescence intensity (a.u.)
6. GTAAATTTCGCTATATTTTAATAAAATTTAATACAGATTACGGAGTCACCTAGTGCAG  3290 fluorescence intensity (a.u.)
7. CTTGCGCGCGTGATTTGCCATTGCCACATGTCCGATTGGGCGGAGTCACCTAGTGCAG  3720 fluorescence intensity (a.u.)
8. CGAAGTGACTATCTATTAATGAGGCAAACATAAGTTTTGGCGGAGTCACCTAGTGCAG  3930 fluorescence intensity (a.u.)
9. TTTTGTGATTTTCCAAAGAATTAATCTTCGAGTGGGCTAACGGAGTCACCTAGTGCAG  3970 fluorescence intensity (a.u.)
10. ACGATTGAAACATTTTCGATCTACTTAGTGAAATAATTCCCGGAGTCACCTAGTGCAG  4210 fluorescence intensity (a.u.)
11. ATGTAAATCAATTGTTTAGTGTTGGATCTATAAGCAACATCGGAGTCACCTAGTGCAG  4370 fluorescence intensity (a.u.)
12. CAGCGTGATGAGTTGTTAACAACCATCTTGTTTATTCTGACGGAGTCACCTAGTGCAG  4510 fluorescence intensity (a.u.)
13. GATGGGAGGGGTGGTGGTTGAATACGCGTGACAGTAGGGGCGGAGTCACCTAGTGCAG  4530 fluorescence intensity (a.u.)
14. GGTCAATCCATGTGCAATTACATTACCTAGTAAAATAAAACGGAGTCACCTAGTGCAG  4600 fluorescence intensity (a.u.)
15. TATCACTGATGGACCTGTGATTCTCTGTCTGGCAGATACTCGGAGTCACCTAGTGCAG  4900 fluorescence intensity (a.u.)
16. CTCACCCATTCTAATTATTTAATATTAGGTCATTCTCCAACGGAGTCACCTAGTGCAG  5360 fluorescence intensity (a.u.)
17. GAAATTAAGAGAAATCAATCGAGATCATGATGATATTAGACGGAGTCACCTAGTGCAG  5790 fluorescence intensity (a.u.)
18. ATTAAATATAATCAGTTTTAATAAGGTGACACCATGGCAGCGGAGTCACCTAGTGCAG  6380 fluorescence intensity (a.u.)
19. ATAACTAATCATGTGGTCATGTGCACTAGAACCAGCACCGCGGAGTCACCTAGTGCAG  6800 fluorescence intensity (a.u.)
20. TCAGATTGTTATTTGATACATCTAGATAGAAGAGGAAGTTCGGAGTCACCTAGTGCAG  7870 fluorescence intensity (a.u.)
21. GAGCTTAATTTACTAATGTACAAGAACAAATACTCCATATCGGAGTCACCTAGTGCAG  7910 fluorescence intensity (a.u.)
22. ATAATTTGCACAATAGATTAATCTTTTAAGCACTAAGTGACGGAGTCACCTAGTGCAG  8210 fluorescence intensity (a.u.)
23. GTCTAAATGTACATAATAGAACGTTCTGAAAGTAAGGCGGCGGAGTCACCTAGTGCAG  8360 fluorescence intensity (a.u.)
24. ATATTTAATTATTGTAAACTTGAAAGATGGATTTATTCGACGGAGTCACCTAGTGCAG  8590 fluorescence intensity (a.u.)
25. CATGGTCAATCTACTCGTTAACGTACATTCACGGTTATTTCGGAGTCACCTAGTGCAG  9160 fluorescence intensity (a.u.)
26. ATAGGAATATAATTTATAAATAACTGATATTTGGAATTAGCGGAGTCACCTAGTGCAG  9280 fluorescence intensity (a.u.)
27. GGCCAAATTAACTCGTACTACGAACTGGTAGCCACGAGGCCGGAGTCACCTAGTGCAG  9920 fluorescence intensity (a.u.)
28. GTAGATTGGGCCTCCAGCTAGAAAGCATAAAGTGGGCCTACGGAGTCACCTAGTGCAG  10700 fluorescence intensity (a.u.)
29. TAAATTGCGCAAAATTTATTCACGTAGATTAAGAGTCCATCGGAGTCACCTAGTGCAG  10700 fluorescence intensity (a.u.)
30. TCTATCTATCTATCTATCTATTATCTATCTTCTATTATATCGGAGTCACCTAGTGCAG  11200 fluorescence intensity (a.u.)
31. CTAGATTCATTAACATTTAAATGAATGTGGGCAATGCTAGCGGAGTCACCTAGTGCAG  11200 fluorescence intensity (a.u.)
32. TTTCAACCAATCATATCCATCACTCATATAACTTCACGTCCGGAGTCACCTAGTGCAG  11900 fluorescence intensity (a.u.)
33. TTCTCTTGATTTGCACCAGCATTTTCTTAGGGTCATTTATCGGAGTCACCTAGTGCAG  12200 fluorescence intensity (a.u.)
34. GTGTAATTGCCGGGCGGAAAGCGCGGGTAATGAGGTGAGGCGGAGTCACCTAGTGCAG  13100 fluorescence intensity (a.u.)
35. ATTAATTCTAATATTAATTGTGTGCCAATGAAATTTACTACGGAGTCACCTAGTGCAG  14000 fluorescence intensity (a.u.)
36. TTATCTAATCTACGATCTGATTGCACCCCTAAATTCGTTACGGAGTCACCTAGTGCAG  14400 fluorescence intensity (a.u.)
37. TGTGATTACAAGTAGCTTTTAACAGGGACAAGCTAGCTGTCGGAGTCACCTAGTGCAG  15400 fluorescence intensity (a.u.)
38. GTTAATTTCTTGAGATCCTGACAATCTGGTATCAGAGCCTCGGAGTCACCTAGTGCAG  15400 fluorescence intensity (a.u.)
39. GTATTGTACGCTTAACGCGTTAATTACTCGCTGATTGACACGGAGTCACCTAGTGCAG  15800 fluorescence intensity (a.u.)
40. GGGTGCTGATTGCATCGTGAAAACAACACTATCAATAGACCGGAGTCACCTAGTGCAG  16600 fluorescence intensity (a.u.)
41. TTTTAATTTTGACGTGAACTAAACACACCCTTACACAAGGCGGAGTCACCTAGTGCAG  21000 fluorescence intensity (a.u.)
42. ACTTGACTAATCATAATTCCAAATTGTCTAGAAATTCCATCGGAGTCACCTAGTGCAG  21500 fluorescence intensity (a.u.)
43. TTCCGTTGATTATCACGGGAATAGCTATCCATTTTCTGAACGGAGTCACCTAGTGCAG  21500 fluorescence intensity (a.u.)
44. TAAACTAATTATTCTGTTGTGCAGTGTACCATTTACATGTCGGAGTCACCTAGTGCAG  21700 fluorescence intensity (a.u.)
45. TCAATCACAGTTAATTAATCCTTAAACAGCAAAGATAATCCGGAGTCACCTAGTGCAG  28700 fluorescence intensity (a.u.)
46. TCGATTAAATTGATGTGCAAAGTATTGTTAACAGTAAGTTCGGAGTCACCTAGTGCAG  31300 fluorescence intensity (a.u.)
47. CAAATCATTCGTTGTTGATTTGTTTGGATAACCGGGGTATCGGAGTCACCTAGTGCAG  32100 fluorescence intensity (a.u.)
48. AATTAATATTTAATTAATTATATACTAATGACTCTTCTTGCGGAGTCACCTAGTGCAG  32500 fluorescence intensity (a.u.)
49. TGTCCAGCCAATTAACTAATTAAGCCAATCAATGCAATGGCGGAGTCACCTAGTGCAG  35800 fluorescence intensity (a.u.)
50. TTTGAGTCTAATTATGCCATGATTGGACAATGTGATGCTACGGAGTCACCTAGTGCAG  39200 fluorescence intensity (a.u.)
51. GATATTGACGGATTAATTGAACCTTTCATTTGTGGCGCATCGGAGTCACCTAGTGCAG  41400 fluorescence intensity (a.u.)
52. TTAAATTGACTATAGATGATTTGGAACTAGTGGTGAGCTACGGAGTCACCTAGTGCAG  44000 fluorescence intensity (a.u.)
53. ACATGATTGATACGTTACGCAAATAAACTACAATACTTTACGGAGTCACCTAGTGCAG  44900 fluorescence intensity (a.u.)
54. CAGATGATTAGTAATGTTAATTATGAATAAACTTGCACGCCGGAGTCACCTAGTGCAG  51800 fluorescence intensity (a.u.)
